# In the supplement of paper PMC10126150:
# Sequences with one replicate were seen in a single cluster, so their values are uncertain.
# Test system: ATP
# Assay: switch fluorescence ratio, 500 uM ATP over buffer (Cy3 cluster intensity, sum of 5 cycles each) (fold (ratio)); higher = stronger signal-on switching upon ATP binding; sequences stand for … in TCGTCGGCAGCGTCAGATGTGTATAAGAGACAGTTTTTTTTTTTTTTTTTTTTTTTTT…TC
# Conditions: aptamer strand: ATP DNA aptamer (quencher-CACCTGGGGGAGTATTGCGGAGGAAGG + anchor), 100 nM annealed; ATP concentration: 500 uM; one replicate
# How it was run: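 For every switch-domain sequence, the fluorescence ratio is the mean of per-cluster values, each being summed target-cycle Cy3 intensity over summed buffer-cycle Cy3 intensity. Clusters outside 100-1000 RFU were excluded. On a modified Illumina MiSeq flow-cell, the Cy3-labelled switching-strand clusters were annealed to 100 nM quencher-labelled ATP aptamer, imaged in selection buffer and then after 15 min with 500 uM ATP at 22 °C. Five such cycles were run, with NaOH stripping and re-annealing between them.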
# 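Also: ATP exposure 15 min at 22 °C before imaging.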
row,Sequence,switch fluorescence ratio
1,GTTTCGAGGA,0.939
2,ATAGGTTAAT,1.06
3,AGAACAATAA,1.02
4,GTAAATTCCT,1.42
5,AGAAATATAG,0.991
6,GGAGGAGGCT,0.971
7,CGTACTAACT,1.1
8,TTAAGGTGCA,1.08
9,CGGGCTTCG,0.989
10,GGGTAAGCGG,1.02
11,TGACGTGAC,1.14
12,CGCTGTACTA,2.26
13,GGAATACAGG,1.08
14,TTCAACGTGT,1.05
15,GTTGCGCTTA,1
16,TCCCCAGACA,1.07
17,GCCCGGTGCA,0.972
18,CGGCAAATCG,1.02
19,CCAAATTAAG,0.981
20,ACTTCTGGGG,1.04
21,GAGAAGGAGT,1.04
22,GGTGATGAAG,0.974
23,TTGGGTTCCA,1.03
24,AGACCCGCGA,2.95
25,TATCTAAGCG,1.02
26,TGAAAGATAG,0.989

row,Sequence,switch fluorescence ratio
1,AACATATTGA,1.01
2,TGTCGCACCT,1.04
3,TTGCGGGCGT,1
4,GTTGCATCTC,1.02
5,TACCATGGAA,1.01
6,CCGACTTTTT,1.31
7,TTCTCCCCCA,1.14
8,GTGATGCTAT,1.02
9,GAACGTATAT,1.14
10,TTGCGAGGAT,0.995
11,ATGGGTCTG,1.03
12,TCGATTCCGA,1
13,GCAAGGATTG,1.05
14,CCAAGTACTG,1.41
15,CCTGTGTATA,1.09
16,ATTTTCTTAT,1.04
17,TTATGATTAC,1.02
18,GGGGCCTCCA,1.01
19,CCTAAGCCAT,1.95
20,AACGTAAA,1.15
21,CTGGTATTGG,1.01
22,CGGACTCATG,1
23,ACGCCAGCAC,1.53
24,GGGCGCGTGG,1
25,ATAAGGTAAA,0.996
26,GCTGATTTGG,0.978

row,Sequence,switch fluorescence ratio
1,TGACTCGTGG,0.99
2,GAATAGTTTA,0.986
3,CGGCAGAGGC,0.994
4,TGCTCGGCCT,1.02
5,TATTTCTTCA,1.01
6,TAAAAGTTCA,0.992
7,GGAACGTCCT,1.01
8,GGATGTAAGC,1.03
9,TTCCCTTTT,0.966
10,GTTTTTGGG,0.976
11,GCTATGCCTT,0.965
12,CAGTGTCCGT,0.979
13,AGTTGCGTGT,0.99
14,GCAGCTAGGG,1.07
15,ACAAAGGGCC,1.01
16,CCATCTTATT,0.946
17,AGGTGGAGA,0.984
18,CCATGTTTCT,0.939
19,CCGCGTTACA,4.87
20,CAGCCCGCTG,0.984
21,CAAGATTGTA,0.993
22,ATCACTGTCT,0.973
23,GCTCGGTGGA,0.984
24,ACCCCATTTG,1.19
25,AATGGTAAAA,1.01
26,TAGTAAGGAT,1.02

row,Sequence,switch fluorescence ratio
1,ACATACGGAT,1.37
2,GCTGTGACAC,1.06
3,TTTTCGCCTC,0.988
4,CGAGTTTTGG,0.972
5,TATGCAGTCC,1.06
6,ATGCTCGACT,1.03
7,CAACATGGGC,1.04
8,TCTGTATCAA,1.07
9,GCAGGTCGGT,0.965
10,AAGCGCCCTG,0.998
11,GTTATGTCAG,0.99
12,ATCGCCTCCT,1.06
13,CGCGTATCAA,0.998
14,GATCATGGTG,1.04
15,TTGAACGGGC,1.14
16,CGAATTACCG,0.973
17,CATCAAAAG,0.97
18,ATGGCGTAGG,1.03
19,GTAGGTTAAT,0.999
20,ATCCTGGGTT,1.05
21,CTTTTTTTAT,1.02
22,TTTGCGTAA,1.01
23,TCTTAGACGG,1.01
24,TTTAACAATT,0.972
25,TAGTCTAGC,1.03
26,CCTGTATCCA,1.09

row,Sequence,switch fluorescence ratio
1,TGAGATGTGG,0.975
2,AAAATGTGCT,1.08
3,CTCTTAGGGT,1
4,TTGACAGCCC,1.04
5,TTTTACCGGT,1.04
6,GAAACCACGG,1.13
7,TTTACCTTT,1.13
8,AAAGTTATGC,0.968
9,ATTTCTCCAG,1.09
10,TAACTCTCGA,1.02
11,TGTGTGGTGG,1.03
12,ACGCAACCTA,1.38
13,GCAGCTTAAT,1.13
14,TCATAGATTA,0.979
15,GAGAGGAGTT,0.997
16,GAATTACAAT,1.01
17,CCGGACCGCC,1.79
18,GAATCTTTCA,0.975
19,GTTGAGTCGT,0.973
20,TCGAGGTGA,1.04
21,TCCGAGTGTG,1.06
22,TTCTGATGGC,0.963
23,TACGTTGTC,1.18
24,GGTCTGACAG,0.971
25,AGGGCTCGCG,0.986
26,GATATCGCAC,1.28

row,Sequence,switch fluorescence ratio
1,AAAAGCATCT,1.02
2,AAAAGCTACG,0.998
3,GAAGTAATG,1.04
4,TCAAGAATTA,0.986
5,GTGGCGGGTC,0.967
6,ATGTTATTAC,1.03
7,ACGGTGAAGC,0.971
8,TGTTGGTGAA,0.983
9,GTTGAACCTT,1.75
10,TGCGCTGA,1.06
11,ATACGAATAT,0.973
12,TGTGATTCG,1.23
13,TGGCCGCAAT,0.991
14,ACACTAGTAT,1.02
15,ATTAAGTACA,1.35
16,TCTTACCAGC,1
17,GATCTTTGTA,0.949
18,CATTACCTAG,1.07
19,GATCCCAGTT,1.04
20,CGGGTCCTGC,1.09
21,CTTGTGGGCC,1.02
22,GCACGCAGCC,1.38
23,CTGCCGAGGT,0.999
24,GCTTTTACCA,0.951
25,GAATTCATAA,1
26,CTTAAATGCG,1.11

row,Sequence,switch fluorescence ratio
1,TAATCGGTGC,0.988
2,ACCTGATGGG,1
3,CTTCATCGAC,1.24
4,CGGGGTAAAC,0.997
5,TCTTAGGCCT,1.01
6,TACGAAATA,5.78
7,GAATGTTCCG,0.98
8,ATATAGCTGT,1.02
9,GGTATCCCTA,1.03
10,TCGGGGCCAC,1.13
11,AGTATCGCGT,0.966
12,AAACCATAGT,1.08
13,TTCGAATATA,0.992
14,CTCCTGAAG,1.02
15,AAACAACTCA,0.947
16,ATCACTTAGG,1.06
17,TCGTAGATTT,0.981
18,AGGCCCGCCG,1.01
19,TGTCTGAATG,1.03
20,CAATGTTGGC,0.998
21,TTTCACGG,0.969
22,CTAAGCATGC,1.19
23,CGGTCACACC,1
24,CGAAGGCACA,1.33
25,CCTCCACTGG,3.91
26,GCAACGATGG,1.01

row,Sequence,switch fluorescence ratio
1,AGTGCGCTCT,0.95
2,GTTGGTCTGC,0.995
3,ACTAATTACT,1.14
4,GGTCTCGTAC,0.994
5,CTCGACAGAG,0.964
6,GCGATCCACC,1.11
7,AGTCTAGATC,1.02
8,CGGCGTTACC,1.11
9,CGCGTCGACG,0.97
10,GTAAGTTCCC,1
11,GAGAACTTAT,0.986
12,GCAAATATGA,1.01
13,ACGAGACCAT,1.11
14,GGATAACTCG,1.06
15,ACTTGGGAGG,1.02
16,TGAGAATATT,0.995
17,GATCGGTTAC,1.23
18,ACATCACATT,1.27
19,AGGGATCGGC,0.935
